# Assay results as given in PubChem BioAssay AID504832 (National Center for Advancing Translational Sciences (NCATS), 2011).
# Several values for one entry are separate records, joined by “and”; a condition that tells them apart may be missing. Equal entries are not always repeated. Screen size: about 310,000 compounds; about 18,000 (5.8%) were called active. This list was built around the results that the source calls inconclusive (neither active nor inactive); the mix of calls is not that of the screen. The call rests on the fitted dose curve; in most records, active means well fitted inhibition curve with a large enough effect; inconclusive means small, poorly fitted or top-dose-only effect, or another doubt; inactive means no such curve, though single readings can be large or run the other way. Where the call is inconclusive, the potency comes from a doubtful curve fit.
# Test: Primary qHTS for delayed death inhibitors of the malarial parasite plastid, 48 hour incubation
# Details: P. falciparum luciferase growth in erythrocytes; series mostly up to 28.7 µM; activity change, negative = inhibition: at the top concentration
# In short: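 Erythrocytes infected with P. falciparum carrying an integrated firefly luciferase reporter (2% hematocrit, 0.1% parasitemia final) were exposed to compounds in RPMI 1640 with 0.5% Albumax at 37 C, 5% CO2. Growth inhibition was scored as reduced luminescence.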
# On the % scale 0 is the no-effect control and ±100 the full control effect; potency means the concentration at half of the fitted maximal effect; tags describe the fitted curve by direction and shape.
Compound,"activity change, negative = inhibition",Potency
COC(=O)NNC(=O)c1ccccc1OC,inactive: 24.5%,
O=c1c2ccccc2n(Cc2ccc(F)cc2)c(=O)n1C1CCCC1,,"inconclusive: 11.7 µM [inhibitor, single point]"
CCCNC(=O)N1[C@H]2CC[C@@H]1C(C(=O)OC)=C(c1ccc(F)cc1OCc1ccccc1)C2,,"inconclusive: 10.4 µM [inhibitor, single point]"
COc1cccc(NC(=O)CN(C)C(=O)c2ccc3[nH]c4c(c3c2)CC(C)CC4)c1 (configuration not stated),,"inconclusive: 10.4 µM [inhibitor, partial curve, poor fit]"
COc1ccccc1C(CNC(=O)c1ccc(NS(=O)(=O)c2ccc3c(c2)OCCO3)cc1)N(C)C (configuration not stated),,"inconclusive: 10.4 µM [inhibitor, single point]"
CCc1ccccc1NC(=O)C1CCCN(c2ncnc3onc(-c4ccc(F)cc4)c23)C1 (configuration not stated),,"inconclusive: 4.15 µM [inhibitor, partial curve, poor fit]"
Cc1cccc(N2CCN(C(=O)c3ccc4c(c3)NC(=O)C(CSCc3cccc(F)c3)N4)CC2)c1C (configuration not stated),,"inconclusive: 7.38 µM [inhibitor, partial curve]"
N/C(=N/OCc1cccc([N+](=O)[O-])c1)c1nonc1N,inactive: 20.7%,
Cc1cccc(NCc2ccc(N(C)C)cc2)n1,inactive: 43.6%,
FC(F)(F)c1ccc(CN2C[C@@H]3C(c4ccc(Cl)nc4)C4(c5ccccc5)CC3(C4)[C@H]2c2ccccc2)cc1 (some centres not stated),,active: 11.7 µM
O=C(CC1C(=O)NCCN1Cc1cccc(F)c1)NC1CCCCC1 (configuration not stated),inactive: 12.8%,
COC(=O)C1=CN(c2ccc(F)c(F)c2)C=C(C(=O)OC)C1c1ccc([N+](=O)[O-])cc1,,"inconclusive: 4.65 µM [inhibitor, partial curve, poor fit]"
O=C(Nc1ccc(F)cc1F)C1CCCN(c2ncnc3c2nc2n3CCCCC2)C1 (configuration not stated),,"inconclusive: 16.5 µM [inhibitor, partial curve, poor fit]"
CCN(CC)C(=S)SSC(=S)N(CC)CC,,"inactive and inconclusive: 5.22 µM [inhibitor, partial curve, poor fit]"
CCOC(=O)CCCCC(=O)c1[nH]c(=O)[nH]c1C[n+]1ccc(C)cc1,inactive: 10.7%,
Cc1ccc(Nc2ncccc2C(N)=O)cc1[N+](=O)[O-],inactive: 289%,
CCN(c1ccccc1)S(=O)(=O)c1ccc(C(=O)Nc2ncccc2O)cc1,,"inconclusive: 13.1 µM [inhibitor, partial curve]"
CCN(C(=O)CSc1nc2cc(S(=O)(=O)N(CC)CC)ccc2n1CC)C1CCS(=O)(=O)C1 (configuration not stated),inactive: -18.4%,
CCCCN(C)CCNC(=O)c1cn(C)c(=O)c2c1c1ccccc1n2C,inactive: -24.1%,
Cc1ccccc1CS(=O)(=O)Cc1ccc(C(=O)NCCc2ccccc2)o1,,"inconclusive: 11.7 µM [inhibitor, partial curve, poor fit]"
CCC(C)c1ccccc1NC(=O)C(C)Sc1n[nH]c(N)n1 (configuration not stated),inactive: -22.8%,
Cc1c(CC(=O)NCC(=O)O)c(=O)oc2cc3c(cc12)CCC(C)(C)O3,inactive: -6.06%,
COc1cc(C)cc(CN2CCC(Cc3ccccc3)CC2)c1O,,active: 0.928 µM
O=C(NCc1ccccc1Cl)C(=O)NCC(c1ccco1)N1CCOCC1 (configuration not stated),inactive: -16.6%,

Compound,"activity change, negative = inhibition",Potency
O=S(=O)(Nc1ccc(Cc2ccncc2)cc1)c1ccc(Br)cc1,,"inconclusive: 18.5 µM [inhibitor, single point]"
COc1ccccc1N1CCN(C2CCCN(Cc3c(F)cccc3F)C2)CC1 (configuration not stated),inactive: 15.6%,
CCCCC(CC)Cn1c(O)c(/C=C2\C=NN=C2c2ccccc2)sc1=S (configuration not stated),,"inconclusive: 18.5 µM [inhibitor, single point]"
N#Cc1cccc(NC(=O)N2CCC(c3nc4c(nnn4Cc4cccc(Cl)c4)c(=O)[nH]3)CC2)c1,,"inconclusive: 5.86 µM [inhibitor, partial curve, poor fit]"
COc1cc(OC)cc(-n2nc(C(=O)N3CC(C)CC(C)C3)c3ccccc3c2=O)c1 (configuration not stated),,"inconclusive: 18.5 µM [inhibitor, single point]"
COc1ccc(S(=O)(=O)NCCCn2ccnc2)cc1Cl,inactive: -0.198%,
O=C(CCCN1C(=O)/C(=C/c2cccs2)SC1=S)Nc1cccc(O)c1,,"inconclusive: 10.4 µM [inhibitor, partial curve]"
O=c1[nH]c(C2CCCN(S(=O)(=O)c3ccc(F)cc3)C2)nc2c1nnn2Cc1ccccc1 (configuration not stated),,active: 13.1 µM
O=c1[nH]c(=O)n(Cc2ccco2)c(O)c1C=NCc1ccc2c(c1)OCO2,inactive: -4.45%,
O=C(NC1CCCCC1)c1cc2c(cc1Cl)N1CCCCCC1=NS2(=O)=O,,"inconclusive: 14.7 µM [inhibitor, single point]"
COc1ccc(NC(=O)c2ccc(C)cc2)c(OC)c1,inactive: 130%,
N/C(Cc1ccc([N+](=O)[O-])cc1)=N\OC(=O)C1CCCCC1,,"inconclusive: 18.5 µM [inhibitor, single point]"
Cc1ccc(CNC(=O)N[C@@H](Cc2ccccc2)C(=O)O)cc1,inactive: 3.51%,
CC(NC(=O)c1ccco1)C(=O)Nc1nc(-c2ccccn2)cs1 (configuration not stated),,"inconclusive: 18.5 µM [inhibitor, single point]"
C/C=C/c1ccc(OCCN2CCc3ccccc3C2)c(OC)c1,,"inconclusive: 20.8 µM [inhibitor, partial curve, poor fit]"
COC(=O)c1c(NC(=O)CN2C(=O)NC3(CCCCC3C)C2=O)sc2c1CCC2 (configuration not stated),,"inconclusive: 18.5 µM [inhibitor, single point]"
O=C(O)C1C2CCC(O2)C1C(=O)Nc1ccc(F)c(Cl)c1 (configuration not stated),inactive: 8.78%,
CCN(CC)CCn1c(SCC(=O)NCc2ccco2)nc2c(sc3ccccc32)c1=O,,"inconclusive: 2.08 µM [inhibitor, full curve, poor fit]"
COc1ccc(NCC(O)Cn2c(C)c(C)c3ccccc32)cc1 (configuration not stated),,"inconclusive: 10.4 µM [inhibitor, single point]"
C=CCN=c1sc(C(=O)OC)cc(=O)n1CC=C,inactive: -15.7%,
CCOc1ccc(C(=O)Nc2ccc3c(c2)OCCO3)cc1[N+](=O)[O-],inactive: 25.7%,
COc1ccc(/C=C/C(=O)C2C(=O)C=C(C)OC2=O)cc1O (configuration not stated),,"inconclusive: 18.5 µM [inhibitor, single point]"
S=C(NCCCN1CCOCC1)Nc1cccc(Cl)c1,inactive: -0.0679%,
COc1ccc(N(CC(=O)NCc2ccncc2)S(=O)(=O)c2ccccc2[N+](=O)[O-])c(OC)c1,inactive: -13.6%,

Compound,"activity change, negative = inhibition",Potency
Cc1cc(N2CCOCC2)nc2ccc(NC(=S)N3CCCCC3C)cc12 (configuration not stated),,"inconclusive: 18.5 µM [inhibitor, single point]"
COc1cc(CNC2CCCC2)c(Br)cc1OC1CCCC1,,"inconclusive: 11.7 µM [inhibitor, single point]"
N#C/C(=C\c1ccc(N2CCOCC2)o1)c1ccccc1,inactive: 9.97%,
CCOc1ccc(N(CC(=O)NC2CCCCC2)C(=O)CSc2nnc(COc3ccccc3)o2)cc1,,"inconclusive: 11.7 µM [inhibitor, single point]"
CCOC(=O)CN1C(=O)C(Sc2n[nH]c(-c3ccc(C)cc3)n2)CCc2ccccc21 (configuration not stated),,"inconclusive: 1.04 µM [inhibitor, full curve, poor fit]"
CC(=N)c1c(O)c2ccccc2oc1=O,inactive: 53.4%,
O=C(Cn1cnc([N+](=O)[O-])n1)NC1CC1,inactive: 17.4%,
COc1ccc(Nc2nnc(SC(C(=O)Nc3ccc(OC)c(Cl)c3)c3ccccc3)s2)cc1 (configuration not stated),,"inconclusive: 18.5 µM [inhibitor, single point]"
CC(=O)c1c(C)[nH]c(C(=O)Nc2nc(-c3ccc(Cl)cc3)cs2)c1C,,"inconclusive: 10.4 µM [inhibitor, single point]"
Cc1nn(C)c(C)c1NC(=O)CCCSc1nc(-c2ccco2)cc(C(F)(F)F)n1,,"inconclusive: 18.5 µM [inhibitor, single point]"
COC(=O)C1CCN(C(=O)C2CCN(C(=O)[C@@H](NS(=O)(=O)c3ccc(C)cc3)C(C)C)CC2)CC1,,"inconclusive: 0.522 µM [inhibitor, full curve, poor fit]"
CCOc1ccccc1C1c2[nH]c3ccccc3c2C[C@H]2C(=O)N(C3CCN(Cc4ccccc4)CC3)CC(=O)N12 (some centres not stated),,active: 0.928 µM
CCN1CCN(c2nc(-c3ccncc3)nc3ccccc23)CC1,,active: 9.28 µM
COc1ccc([N+](=O)[O-])cc1NCc1ccccc1,inactive: 17.6%,
CCn1cc(CN2CCC(C(=O)Nc3ccc(Oc4ccccc4F)cc3)CC2)c(C)n1,,"inconclusive: 10.4 µM [inhibitor, single point]"
CN1C(=O)c2ccc(C(=O)NCc3ccco3)cc2C1=O,inactive: 11%,
Cc1cccc(C(=O)Nc2ccc(N3CCN(c4ccc(C(F)(F)F)cn4)CC3)nc2)c1,,"inconclusive: 2.08 µM [inhibitor, partial curve, poor fit]"
CCCc1nc2oc3ccccc3c(=O)c2c(=O)n1-c1ccc(C)cc1,inactive: 25.8%,
O=C(Cc1ccccc1)NN1CCCCC1,inactive: 11.2%,
O=C(Nc1nccs1)c1cc(-c2ccccc2)nc2ccccc12,,active: 2.62 µM
O=C(CCNS(=O)(=O)c1ccc(Cl)cc1)N1CCN(Cc2ccccc2)CC1,inactive: 0%,
CCCN(CC(=O)Nc1ccccc1C)C(=O)C1CC(=O)N(c2ccc(CC)cc2)C1 (configuration not stated),inactive: -11.6%,
CCOc1ccc(Oc2ccc(S(=O)(=O)N3CCOCC3)cc2NC(=O)C2=COCCO2)cc1,,"inconclusive: 13.1 µM [inhibitor, single point]"
COc1ccc(N=CC2=C(O)CC(c3ccccc3)CC2=O)c(OC)c1 (configuration not stated),,"inconclusive: 16.5 µM [inhibitor, partial curve, poor fit]"
